Hit rate of the full screen: of about 110,000 compounds, about 230 (0.21%) showed an effect of 50% or more. The list shows a part of the results.
Target: DPAP1 (Plasmodium falciparum, UniProt Q8IIJ9)
Test: primary screen, percent inhibition; read by cleavage of a fluorogenic dipeptide substrate; higher = more effect of the substance
Design: species or system P. falciparum D10 trophozoite lysates; single well
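Further: 30 min substrate incubation versus DMSO and 10 µM JCP410 controls.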

Chain of DPAP1 (Q8IIJ9 whole entry, looked up): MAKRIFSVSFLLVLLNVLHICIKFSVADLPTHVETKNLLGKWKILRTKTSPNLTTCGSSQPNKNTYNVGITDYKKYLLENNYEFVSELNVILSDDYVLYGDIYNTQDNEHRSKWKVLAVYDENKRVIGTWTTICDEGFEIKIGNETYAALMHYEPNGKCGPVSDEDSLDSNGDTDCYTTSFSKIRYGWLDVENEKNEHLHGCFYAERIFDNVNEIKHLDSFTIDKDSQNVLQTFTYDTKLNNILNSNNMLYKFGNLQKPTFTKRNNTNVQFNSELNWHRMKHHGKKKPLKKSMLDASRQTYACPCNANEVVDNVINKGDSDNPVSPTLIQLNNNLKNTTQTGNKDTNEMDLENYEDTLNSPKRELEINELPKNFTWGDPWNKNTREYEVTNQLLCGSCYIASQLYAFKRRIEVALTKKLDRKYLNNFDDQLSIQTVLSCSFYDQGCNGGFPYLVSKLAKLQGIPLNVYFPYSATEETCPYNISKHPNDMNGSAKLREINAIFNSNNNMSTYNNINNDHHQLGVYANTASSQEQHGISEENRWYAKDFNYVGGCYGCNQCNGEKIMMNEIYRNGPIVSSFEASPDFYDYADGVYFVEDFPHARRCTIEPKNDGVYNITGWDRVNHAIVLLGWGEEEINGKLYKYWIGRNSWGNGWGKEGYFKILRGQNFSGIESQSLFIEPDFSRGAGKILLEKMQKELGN

Row | Structure (SMILES) | % Inhibition @ 10 uM
1 | CCOc1ccc(C(=O)Nc2cccc(C)c2C)cc1 | -0.865%
2 | c1nc(NCCN2CCOCC2)c2c3c(sc2n1)CCCC3 | -4.51%
3 | Cc1ccc(C(=O)Nc2ccc(C)c(C)c2)s1 | 3.97%
4 | C=CCN1C(=S)N[C@@H]2CS(=O)(=O)C[C@@H]21 | -0.85%
5 | CCOC(=O)C1CCCN(Cc2ccc(C(C)C)cc2)C1 (stereo not drawn) | -0.0404%
6 | COc1ccccc1-c1cc(C(=O)NCCN2CCOCC2)c2ccccc2n1 | -1.95%
7 | COc1ccc(CC(=O)NCCSc2c[nH]c3ccccc23)cc1OC | 1.23%
8 | O=C(CN1C(=O)c2cccc3cccc(c23)C1=O)N1CCOCC1 | 5.64%
9 | O=C(O)CCC(=O)Nc1cccc2ccccc12 | -3.65%
10 | COc1cccc(CN(C(=O)c2cccc(OC)c2)C2CCS(=O)(=O)C2)c1 (stereo not drawn) | -6.85%
11 | O=C(COc1ccc(Cl)cc1)N(Cc1ccccc1)c1ccccn1 | 3.62%
12 | Cc1sc(NC(=O)C2CCCCC2C(=O)O)c(C(N)=O)c1-c1ccccc1 (stereo not drawn) | 18.3%
13 | COC(=O)c1cc(S(=O)(=O)NCCCN(C)Cc2ccccc2)c[nH]1 | 1.73%
14 | Cc1cc(-c2ccccc2)c2c3c(c(-c4ccccc4)n2n1)c(=O)n(C)c(=O)n3C | 3.15%
15 | CC1=Nc2ncnn2C(c2cccc(O)c2)/C1=C(\O)OC(C)C (stereo not drawn) | -1.17%
16 | Cc1cccc(C(=O)Nc2ccc(CN3CCOCC3)cc2)c1 | 0.709%
17 | N#CCCn1c2ccccc2c2ccccc21 | -0.546%
18 | COc1cc(C(=O)NCCOc2ccccc2F)cc(OC)c1OC | 0.503%
19 | OC(CCCN1CCCCC1)(c1ccccc1)c1ccccc1 | 2.09%
20 | Cc1ccc(S(=O)(=O)N(CC(=O)N2CCN(c3ccccc3F)CC2)Cc2ccc(F)cc2)cc1 | -0.545%
21 | CCCCCCc1ccc(-c2ncc(-c3ccc(Br)cc3)cn2)cc1 | 1.35%
22 | CN(Cc1cn2c3ccccc3n(C)c2n1)C12CC3CC(CC(C3)C1)C2 | -1.38%
23 | CCCCNS(=O)(=O)c1ccc(S(=O)(=O)N2CCN(CCC#N)CC2)cc1 | -5.51%
24 | Cc1ccc(CNc2cnn(C34CC5CC(CC(C5)C3C(=O)O)C4)c(=O)c2Cl)cc1 (stereo not drawn) | 8.73%
25 | Cc1ccc(N2C(=O)C3C4C=CC(CNC(=O)OCc5ccccc5)(O4)C3C2=O)cc1 (stereo not drawn) | -5.47%
26 | CCOC(=O)C1CCN(S(=O)(=O)c2ccc(F)cc2)CC1 | -0.833%

Row | Structure (SMILES) | % Inhibition @ 10 uM
27 | CCC(=O)N1CCN(c2cc(N3CCOCC3)c(F)cc2[N+](=O)[O-])CC1 | -6.25%
28 | Cc1ccccc1Cn1c(SCc2ccc(C(=O)NCC3CCCO3)cc2)nc2ccncc21 (stereo not drawn) | -8.96%
29 | CCOc1ccc(NC(=O)CN(c2cccc(Br)c2)S(C)(=O)=O)cc1 | 0.431%
30 | O=C(Nc1ccc2c(c1)OCO2)c1cc2n(n1)C(C(F)(F)F)CC(c1ccccc1)N2 (stereo not drawn) | 4.67%
31 | CCN(CCN(C)C)Cc1ccoc1 | 0.265%
32 | CCc1cccc(C)c1NS(=O)(=O)Cc1ccccc1 | 1.43%
33 | O=C(COC(=O)c1ccccc1F)c1ccc(Br)cc1 | -4.26%
34 | O=C(Nc1cccc2cccnc12)c1cccc(C(=O)Nc2cccc3cccnc23)n1 | -0.318%
35 | CC1=NCCN1CCOC(c1ccccc1)c1ccc(Cl)cc1Cl (stereo not drawn) | 0.472%
36 | Cn1ncc2c(NC34CC5CC(CC(C5)C3)C4)ncnc21 | -2.14%
37 | N#CC1=C(N)Oc2[nH]nc(-c3ccccc3)c2C1c1cccc(O)c1 (stereo not drawn) | 4.32%
38 | CC1(C)CC(=O)C2=C(C1)N=C(S)C(C#N)C21CCCCC1 (stereo not drawn) | 41.6%
39 | COC(=O)c1cc(S(=O)(=O)N2CCN(Cc3ccccc3)CC2)c[nH]1 | 3.35%
40 | Cc1ccc(OCCCc2c(C)n[nH]c2C)cc1C | 1.83%
41 | CCCCCn1c(=O)c(C(=O)Nc2nc3ccccc3s2)c(O)c2ccccc21 | -10.8%
42 | COc1ccc(CC(=O)Nc2ccc(S(=O)(=O)N3CCCC3)cc2)cc1 | -1.17%
43 | CCOCCCNC(=O)C1CCN(c2nnc(C)c3c(C)n(-c4ccccc4)nc23)CC1 | 2.14%
44 | CCOc1ccc(-c2[nH]nc3c2C(c2cc(OC)ccc2OC)NC3=O)cc1 (stereo not drawn) | 0.708%
45 | O[C@]12CCCC[C@@H]1[C@@H](c1ccc3c(c1)OCO3)NCC2 | -0.415%
46 | CC(C)(C)c1ccc(C(=O)Nc2ccc3c(c2)OCO3)cc1 | 5.29%
47 | CCO/C(O)=C1/C(C)=Nc2nc(N)nn2C1c1ccccc1OC (stereo not drawn) | -1.62%
48 | COc1ccc(NS(=O)(=O)c2ccc(NC(=O)c3ccn(C)n3)cc2)cc1 | 4.44%
49 | CCc1nc(C)cc(N)c1OCc1ccccc1 | -4.51%
50 | COc1ccc(NC(=N)Nc2nc(O)c3c(n2)CCC3)cc1 | 4.59%
51 | Cc1ccccc1OCc1nc(C#N)c(NCCc2ccccc2)o1 | -1.98%
